Among all 390,000 compounds or so, about 17,000 (4.4%) were called active. Inconclusive means that the source gave no clear call. Such entries were picked first, then a sample of the others. The call rests on the fitted dose curve; in most records, active means well fitted inhibition curve with a large enough effect; inconclusive means small, poorly fitted or top-dose-only effect; inactive means no such curve, though single readings can be large or run the other way. A potency beside an inconclusive call is a rough fit, not a confirmed value.
Molecular target: Lysine-specific demethylase 4A (Homo sapiens) (UniProt O75164)
UniProt O75164, sequence (O75164 whole entry, looked up, the tested form may be a part): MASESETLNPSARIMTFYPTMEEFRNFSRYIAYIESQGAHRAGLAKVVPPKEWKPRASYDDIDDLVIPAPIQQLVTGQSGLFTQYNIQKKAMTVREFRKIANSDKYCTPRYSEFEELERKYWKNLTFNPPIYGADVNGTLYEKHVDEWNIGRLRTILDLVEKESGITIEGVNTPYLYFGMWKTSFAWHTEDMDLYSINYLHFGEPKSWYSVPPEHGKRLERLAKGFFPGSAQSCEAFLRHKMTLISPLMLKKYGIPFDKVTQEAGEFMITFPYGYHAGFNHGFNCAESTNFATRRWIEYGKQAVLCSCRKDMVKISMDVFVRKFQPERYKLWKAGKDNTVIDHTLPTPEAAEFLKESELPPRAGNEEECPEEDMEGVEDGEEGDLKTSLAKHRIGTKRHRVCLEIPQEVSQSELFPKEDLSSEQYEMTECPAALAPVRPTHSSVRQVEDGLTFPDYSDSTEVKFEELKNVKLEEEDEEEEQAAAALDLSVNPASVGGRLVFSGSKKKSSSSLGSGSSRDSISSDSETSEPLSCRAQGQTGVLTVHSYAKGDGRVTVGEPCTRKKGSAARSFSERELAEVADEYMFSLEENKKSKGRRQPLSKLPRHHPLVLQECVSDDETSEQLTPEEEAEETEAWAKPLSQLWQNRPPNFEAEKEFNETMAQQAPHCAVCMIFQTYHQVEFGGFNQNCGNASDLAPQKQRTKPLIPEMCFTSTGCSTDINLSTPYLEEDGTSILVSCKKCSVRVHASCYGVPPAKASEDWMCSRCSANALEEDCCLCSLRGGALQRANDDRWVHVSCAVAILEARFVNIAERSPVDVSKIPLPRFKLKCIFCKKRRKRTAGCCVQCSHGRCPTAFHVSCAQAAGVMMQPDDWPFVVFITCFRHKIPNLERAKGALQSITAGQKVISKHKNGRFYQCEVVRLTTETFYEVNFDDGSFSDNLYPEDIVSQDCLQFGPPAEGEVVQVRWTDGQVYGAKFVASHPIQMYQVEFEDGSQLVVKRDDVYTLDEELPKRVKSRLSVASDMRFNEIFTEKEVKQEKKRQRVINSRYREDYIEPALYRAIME
Assay: qHTS Assay for Inhibitors of JMJD2A-Tudor Domain; further: nearly all actives have a fitted effect of over 50% in size
Conditions: AlphaScreen JMJD2A-Tudor / H3K4me3 peptide binding; activity change, negative = inhibition: at 114 µM (top of the series)
On the % scale 0 is the no-effect control and ±100 the full control effect; potency means the concentration at half of the fitted maximal effect; tags describe the fitted curve by direction and shape.

Potency, inconclusive:
CC(C)c1ccc(NC2CCCN(C(=O)c3cc(C(C)C)nc(N)n3)C2)cc1 (stereo unspecified) 28.2 µM [inhibitor, full curve], CCOC(=O)c1c(C)[nH]c(CCC(=O)NCc2cc(Br)ccc2OC)c1C 89.1 µM [inhibitor, partial curve], Cc1cc2c(s1)c1cnn(Cc3ccc(C(F)(F)F)cc3F)c(=O)c1n2C 31.6 µM [inhibitor, single point], COc1ccc(CNC(=O)CCS(=O)(=O)c2cc3c4c(c2)CCN4C(=O)CC3)cc1OC 100 µM [inhibitor, single point], CCn1c(C(=O)N2CCc3ccccc3C2)cc2oc3ccccc3c21 22.4 µM [inhibitor, full curve], CCc1ccc(C(CNC(=O)c2ccc3c(=O)n(-c4ccccc4F)c(=S)[nH]c3c2)N(C)C)cc1 (stereo unspecified) 56.2 µM [inhibitor, partial curve], COc1ccc(NC(=O)CC2Sc3ncnn3C2=O)cc1 (stereo unspecified) 11.2 µM [inhibitor, partial curve], CCOC(=O)C1CCN(C(=O)CCc2nc3sc4c(c3c(=O)[nH]2)CCCC4)CC1 79.4 µM [inhibitor, partial curve], COc1cccc(CN2C(=NC(=O)CCC3CCCC3)SC3CS(=O)(=O)CC32)c1 (stereo unspecified) 39.8 µM [inhibitor, single point], COCOc1ccc(/C=C/C(=O)c2c(OCOC)cc(OCOC)c(CC=C(C)C)c2O)cc1OCOC 25.1 µM [inhibitor, partial curve], O=C(c1cc(S(=O)(=O)N2CCCC2)c[nH]1)N1CCN(c2cccc(Cl)c2)CC1 63.1 µM [inhibitor, partial curve, poor fit], Cc1nn(-c2ccccc2)c2nc(-c3ccco3)cc(C(=O)O)c12 79.4 µM [inhibitor, partial curve], CN1C(=O)/C(=C\c2ccccc2F)Sc2ccc(C(=O)NC3CCN(Cc4ccccc4)CC3)cc21 28.2 µM [inhibitor, full curve], CC(C)(C)c1ccc(C(=O)N/C(=C/c2cccs2)C(=O)NCc2ccco2)cc1 79.4 µM [inhibitor, partial curve], O=C(Cn1[nH]c(=O)c2ccccc2c1=O)Nc1cccc(S(=O)(=O)N2CCCCCC2)c1 89.1 µM [inhibitor, single point], Cc1nc2ccccc2n1S(=O)(=O)c1ccc(Br)cc1 3.98 µM [inhibitor, single point], Cc1ccc2nc(NC(=O)C3CCCN(S(=O)(=O)c4cccc5nsnc45)C3)sc2c1 (stereo unspecified) 56.2 µM [inhibitor, partial curve], CN1CCN(C(=O)c2ccc(COc3cc(Cl)ccc3Cl)o2)CC1 1.58 µM [inhibitor, full curve], Cc1ccc(NC(=O)C2=C(c3ccccc3)S(=O)(=O)CCS2(=O)=O)cc1 17.8 µM [inhibitor, full curve, poor fit], Cc1cccc(CCNC(=O)C2CCCN(S(=O)(=O)c3cnc[nH]3)C2)c1 (stereo unspecified) 39.8 µM [inhibitor, partial curve, poor fit], Cc1cc2cc(CNC(=S)NC3CCCCC3)ccc2[nH]1 50.1 µM [inhibitor, partial curve], CCOC(=O)c1cc(CC)sc1NC(=O)CN1CCN(C(=O)c2ccco2)CC1 56.2 µM [inhibitor, partial curve], O=C(CSc1nc(=O)n2ccccc2n1)Nc1cccc2ccccc12 100 µM [inhibitor, single point], CCCCNC(=O)CN1CCN(c2ccc(NC(=O)c3ccc(OC)cc3)cc2C(=O)O)CC1 89.1 µM [inhibitor, single point], Cc1ccc(N(C)S(=O)(=O)c2nnc(NC(=O)c3ccco3)s2)cc1 3.98 µM [inhibitor, full curve, poor fit], COc1ccc(NC(=O)Nc2ccc(O)c3ccccc23)cc1 44.7 µM [inhibitor, partial curve], O=C(CSc1ncccc1C(=O)O)NC1CCCCCCC1 25.1 µM [inhibitor, full curve, poor fit], COc1cc(/C=N/n2cnnc2)ccc1OC(=O)c1cccnc1 39.8 µM [inhibitor, single point], COc1ccc2cc3c(N)c(C(=O)N4CCCC4)sc3nc2c1 56.2 µM [inhibitor, partial curve], CN1CCN(c2ccccc2NC(=O)c2ccc(N3CCOCC3)c([N+](=O)[O-])c2)CC1 79.4 µM [inhibitor, partial curve], CC(C)(C)S(=O)(=O)/C(C#N)=N/Nc1ccc(Cl)cc1 63.1 µM [inhibitor, partial curve], O=[N+]([O-])c1cc(Cl)ccc1Sc1ccccn1 56.2 µM [inhibitor, partial curve], Cc1ccc2nsnc2c1S(=O)(=O)Nc1cccc2cccnc12 44.7 µM [inhibitor, partial curve], CCCCCCc1cc2cc(-c3nnc(-c4ccccc4)o3)c(=O)oc2cc1O 25.1 µM [inhibitor, single point], O=C(NCc1ccco1)c1cccc(S(=O)(=O)N2CCN(Cc3ccccc3)CC2)c1 50.1 µM [inhibitor, partial curve], Cc1ccc(Oc2cc([N+](=O)[O-])cc3c2C(=O)Nc2ccccc2O3)cc1 50.1 µM [inhibitor, partial curve], O=C(O)CCc1ccc(-c2ccc(F)cc2)n1Cc1ccco1 50.1 µM [inhibitor, partial curve], Cc1cc2ccccc2n1CCNC(=O)c1cccs1 39.8 µM [inhibitor, partial curve], C=C(C)COc1ccc(-c2[nH]ncc2-c2ccc(OC)c(OC)c2)c(O)c1 56.2 µM [inhibitor, partial curve], CC(C)C(=O)c1ccc(O)c(O)c1 25.1 µM [inhibitor, partial curve], Cc1ccccc1CN1C(=O)C(O)(c2c[nH]c3ccccc23)c2cc(Cl)ccc21 (stereo unspecified) 35.5 µM [inhibitor, partial curve], Cc1ccc(S(=O)(=O)NCCCNc2ccc([N+](=O)[O-])cc2)cc1 44.7 µM [inhibitor, partial curve], O=C(Nc1ccc(Cl)cc1Cl)c1n[nH]c(Cn2cncn2)n1 44.7 µM [inhibitor, partial curve, poor fit], COc1cc2ccccc2cc1C(=O)Nc1ccc(N2CCN(C)CC2)cc1 31.6 µM [inhibitor, partial curve]

Potency, active:
CN1c2ccccc2C(C)(C)[C@]12C=Cc1cc(O)ccc1O2 56.2 µM, CC(C)(C)NC(=S)Nc1ccc(Nc2ccccc2)cc1 31.6 µM, COc1ccc(N2Cc3cccc(C(=O)N4CCN(C(=O)c5ccco5)CC4)c3C2=O)cc1 50.1 µM, CCn1ccnc1CN1CCc2c([nH]c3ccccc23)C1C1CCCCC1 (stereo unspecified) 14.1 µM, C=CCn1c(-c2ccc(Cl)cc2)c[nH]c1=S 25.1 µM, COc1ccc(OC)c(Nc2nc(NCCO)c3ccccc3n2)c1 44.7 µM, O=C(Nc1cccc(C(F)(F)F)c1)c1ccc2nc(-c3ccco3)c(-c3ccco3)nc2c1 20 µM, O=C(O)CN1C(=O)/C(=C\c2cc([N+](=O)[O-])ccc2OCc2ccccc2Cl)SC1=S 50.1 µM

Activity change, negative = inhibition, inactive:
CC(=O)Nc1ccc(SC[C@H](CC(C)C)N2CCN(CC(C)C)CCC2=O)cc1 -21.7%, O=C(c1ccc(NS(=O)(=O)c2ccc3[nH]c(=O)[nH]c3c2)cc1)N1CCN(c2ccccc2O)CC1 -20.4%, COc1ccc(-c2nc(CN3CCC(C(=O)NC4CCN(Cc5ccccc5)CC4)CC3)c(C)o2)cc1OC -13.2%, Cc1ccccc1-n1c(=O)c2ccccc2n2cnnc12 7.37%, Cc1cc(Cl)ccc1NC(=O)CCS(=O)(=O)c1ccc2c(c1)CC(C)N2C(=O)C1CC1 (stereo unspecified) 2.41%, Cc1cc(C)n(-c2nnc(C)n2/N=C/c2ccccc2OCc2ccccc2Cl)n1 -21%, CCOc1ccc(NC(=O)CSc2nc(-c3ccccc3)c3cc(OCC)ccc3n2)cc1 -19.8%, COc1ccc(N2C(=O)c3cccc4c(N(C)CCO)ccc(c34)C2=O)cc1 -16.9%, Cc1nnc(SCC(=O)N(C)C2CCCCC2)s1 -13.1%, COCCn1c(CCC(=O)Nc2ccc(OC)c(OC)c2)nc2cccnc21 -6.04%, CC(C)(C)[C@H]1COC(=O)CC/C=C\C[C@@H](CC(=O)N(CCO)Cc2ccccc2)C(=O)N1 6.43%, C=CC[C@@H](CC(=O)NCCO)C(=O)NC[C@@H](OC(=O)[C@H](CC=C)CC(=O)OC(C)(C)C)c1ccccc1 -9.15%, CC1CCCC(C)N1C(=O)COC(=O)CCc1nc2ccccc2c(=O)[nH]1 (stereo unspecified) 12.3%, Cn1cnc(S(=O)(=O)N2CCC(C(=O)Nc3ccc(OC(F)(F)F)cc3)CC2)c1 -8.61%

Reference: PubChem BioAssay AID504339 (National Center for Advancing Translational Sciences (NCATS), 2011)
